# The supplement of paper PMC3334620
# In all, about 33,000 sequences were measured (“E-score (-0.5 to 0.5)”: median about -0.04, highest 2% from about 0.36 on). Some of the results follow.
# Biological target: T1, Hmlalpha2 (UniProt P0CY09)
# T1 sequence: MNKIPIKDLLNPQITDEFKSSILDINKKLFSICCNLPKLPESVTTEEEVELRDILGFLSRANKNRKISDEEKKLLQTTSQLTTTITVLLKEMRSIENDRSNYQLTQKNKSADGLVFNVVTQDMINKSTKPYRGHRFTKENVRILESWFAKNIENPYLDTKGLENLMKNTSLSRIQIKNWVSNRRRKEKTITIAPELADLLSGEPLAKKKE
# Test: PBM E-score (8-mer binding enrichment) (E-score (-0.5 to 0.5)); higher = stronger / more preferred TF binding; most listed sequences are background and not binding sites
# Settings: protein concentration: 200 nM; construct: GST-full length
# Procedure, shortened: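 Yeast transcription factors carrying a GST tag, as full-length proteins or DNA-binding domains, were produced by PURExpress in vitro transcription/translation. About 100-200 nM protein was applied to universal all-10-mer Agilent arrays, double-stranded by primer extension on fresh or once-stripped slides. Bound protein was detected with fluorescent anti-GST, and scans were normalised with masliner. The Universal PBM Analysis Suite gave each ungapped eight-base word, pooled with its reverse complement, an E-score, a modified Wilcoxon-Mann-Whitney statistic.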
row,Sequence,PBM E-score
1,GACTCAAC,0.167
2,ATTTTGAA,0.0904
3,ATTTACGG,0.12
4,GATACAAC,0.148
5,ACCACTAT,-0.112
6,AAAGAGGT,0.00806
7,ACTGAGGA,-0.279
8,AAGGGATT,-0.165
9,ACCCAGCG,-0.0999
10,ATTTAGCC,0.0155
11,CCATTTAC,0.307
12,CACATCCC,-0.0137
13,GGCGATAA,-0.299
14,ATGATGAA,0.108
15,AGGCCGAA,-0.131
16,GACATTAC,0.246
17,AGCCGTGG,-0.245
18,CTCTGGTA,-0.0526
19,GACGAGGA,-0.184
20,ACAAGGTG,0.245
21,ACCAACTG,0.00286
22,TATCGCGA,-0.102
23,AGATCGTC,-0.198
24,CATAGTGG,-0.167
25,AGAAGCAG,-0.144

row,Sequence,PBM E-score
1,CGTAATCC,0.309
2,GAGAGACA,-0.114
3,ACTGTACC,-0.103
4,AGCCGCAG,-0.285
5,GTCTGCAA,-0.155
6,AGCGACCC,-0.165
7,ATTGTCAG,0.166
8,AGGGGATC,-0.286
9,AGATAAGG,-0.0762
10,ACAAGCCT,0.227
11,AGGTATAT,0.0948
12,GGTAGCTA,-0.00113
13,TAGTGACA,0.125
14,CTAAGGTA,-0.0248
15,ACTTGTCC,0.0142
16,ATTACATC,0.445
17,ATTAGCGA,-0.00398
18,CACTGGCA,-0.0335
19,CGGAGGCC,-0.334
20,CTATTGAA,-0.00741
21,ATATTCTG,0.00643
22,TCATACAA,0.0397
23,CCAGCTCG,-0.181
24,CTTACGCA,0.341
25,AATACGTC,0.226

row,Sequence,PBM E-score
1,AAGCATTC,-0.00091
2,ATTCCGAG,-0.116
3,CGGGGACC,-0.311
4,TTAAGTAA,0.213
5,CTAAGGAC,-0.106
6,GACAAAAC,0.156
7,ATTTATGC,0.0193
8,CAGGTTCG,-0.125
9,AATCGTCT,0.00339
10,AGACTACA,0.214
11,ACGCTTAG,0.0769
12,AGGCGTCA,-0.143
13,AGTGTATG,0.107
14,AGTGCCAG,-0.0844
15,ACGGGCGA,-0.261
16,ACGTAGTA,0.232
17,ACTGATGG,-0.0982
18,ACAGGTGC,-0.0992
19,CACGAAGA,0.11
20,ATGTCATC,0.0953
21,CAACAGCC,0.0886
22,CCGGTACA,0.142
23,ACCGTGAA,-0.0846
24,AGCCTACA,0.134
25,AGGGCATG,0.128

row,Sequence,PBM E-score
1,GGGCCTGA,-0.262
2,CACTCGCC,-0.169
3,GGGGCGCA,-0.136
4,ACACGCTC,0.399
5,CAGACTCG,-0.19
6,ACATTGAA,0.251
7,ATCTAGCC,-0.297
8,ACCTCAGC,-0.0793
9,ATAACCTA,0.125
10,CCGCACCG,-0.0442
11,ATTAGCTC,0.0366
12,CTTGCCGA,-0.0654
13,AATATGAG,0.0751
14,ATCTTCAA,0.119
15,AAGGAATG,-0.0711
16,CGTACAGA,0.11
17,GACGAATA,-0.00662
18,TCCTCGCA,-0.204
19,CAAAGATG,-0.0782
20,CCATCCTC,-0.107
21,AGTCCTGG,-0.302
22,ACCCGTCG,-0.181
23,AGGAAAGA,-0.198
24,AACTTTGA,0.0867
25,AGCACTCG,-0.295

row,Sequence,PBM E-score
1,CGCATCTC,-0.072
2,CCACTTCC,0.00834
3,ACGGATAA,0.0652
4,ATCAAGAC,0.107
5,AGTTTGAC,0.155
6,GACCCATC,-0.13
7,GAAACACA,0.252
8,CAGCGACA,-0.0988
9,CGCGGAAA,-0.0502
10,CGCAGAAC,0.157
11,CTGCTGCA,-0.131
12,CATTTCGG,-0.0384
13,CTCTACGA,0.094
14,TACATAGA,0.427
15,AGCCTCCG,-0.164
16,CCACGCTA,-0.17
17,CAGTGTCA,0.124
18,ACAGGTTG,0.0587
19,CCGTTTCA,-0.181
20,GATACTAA,0.0853
21,AAGTCATA,-0.0514
22,GATTGGAA,-0.207
23,AACCGGCG,-0.012
24,GTCTCACA,-0.0902
25,AGAGGGGA,-0.29

row,Sequence,PBM E-score
1,ATGGAAAG,0.0245
2,GCAACCGC,-0.014
3,ACGCAAGA,0.157
4,TCCTCAAA,0.174
5,CGCTCCCC,-0.254
6,AGGGTAAT,-0.0496
7,ACGATTCA,-0.0549
8,GGCCGACC,-0.28
9,TATGCAAA,0.213
10,AAATGCTA,0.0509
11,AATGCATC,0.0637
12,AACGGGCA,-0.25
13,AGAATATA,0.0401
14,CTCACTAC,0.00421
15,AAAAAGCT,-0.181
16,AATTAGAG,0.079
17,CCTCGTCA,-0.0356
18,ACTCAGTG,-0.156
19,CCCTGTAA,0.325
20,CTAGTTGA,0.145
21,AGTCTAAG,-0.118
22,CAGCTTGA,-0.0036
23,GCAGTTCC,-0.213
24,AGTACATA,0.401
25,ATTCTCAA,0.151

row,Sequence,PBM E-score
1,AGGTTAAA,0.151
2,ACACAGAC,0.343
3,CGAGGGCG,-0.23
4,ACCATATC,-0.211
5,ATATATGG,-0.0139
6,AAACGCAA,0.259
7,GTGTGGTA,0.156
8,GTGCTCGA,-0.071
9,CGCAATAC,0.362
10,GAGCATCC,-0.257
11,AGTGCAAC,-0.0293
12,GCCGATCC,-0.245
13,GTGGTGCA,-0.15
14,GCCAAATA,-0.0471
15,CCATCTGC,-0.116
16,AACCAGAC,0.178
17,GAGATGAC,-0.198
18,CGACTCCA,-0.228
19,GGTCGATA,-0.128
20,ATACGGCC,0.00671
21,CGGACATA,0.0379
22,CCCCATCG,-0.159
